# Reference: the supplement of paper PMC8728848
# The list shows a part of the results.
# B1: GNA (Galanthus nivalis), P30617 (protein)
# chain: MAKASLLILAAIFLGVITPSCLSDNILYSGETLSTGEFLNYGSFVFIMQEDCNLVLYDVDKPIWATNTGGLSRSCFLSMQTDGNLVVYNPSNKPIWASNTGGQNGNYVCILQKDRNVVIYGTDRWATGTHTGLVGIPASPPSEKYPTAGKIKLVTAK
# Columns and labels:
# Assay in all cases: glycan array binding signal (z-score within array); higher = stronger binding
# Conditions in all cases: glycan notation: IUPAC condensed, linker removed
# [1] = target: Gal(b1-3)GlcNAc(b1-2)[Gal(b1-3)GlcNAc(b1-6)]Man(a1-6)[Gal(b1-3)GlcNAc(b1-2)Man(a1-3)]Man(b1-4)GlcNAc(b1-4)GlcNAc
# How it was run: (§1)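 Negative Z-scores can be read as non-binding. The Z-score is calculated within each array and then averaged across arrays of one protein sequence at different concentrations or buffers and across linkers. Arrays, 3228 in all, were curated from the Consortium for Functional Glycomics database and kept only where the protein sequence was available.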
# [2] = target: Gal(b1-3)GlcNAc(b1-3)Gal(b1-3)GlcNAc
# How it was run: as §1
# [3] = target: Gal(b1-3)GlcNAc(b1-3)Gal(b1-4)Glc
# How it was run: as §1
# [4] = target: Gal(b1-3)GlcNAc(b1-3)Gal(b1-4)GlcNAc
# How it was run: as §1
# [5] = target: Gal(b1-3)GlcNAc(b1-3)Gal(b1-4)GlcNAc(b1-2)Man(a1-3)[Gal(b1-3)GlcNAc(b1-3)Gal(b1-4)GlcNAc(b1-2)Man(a1-6)]Man(b1-4)GlcNAc(b1-4)GlcNAc
# How it was run: as §1
# [6] = target: Gal(b1-3)GlcNAc(b1-3)Gal(b1-4)GlcNAc(b1-2)[Gal(b1-3)GlcNAc(b1-3)Gal(b1-4)GlcNAc(b1-6)]Man(a1-6)[Gal(b1-3)GlcNAc(b1-3)Gal(b1-4)GlcNAc(b1-2)Man(a1-3)]Man(b1-4)GlcNAc(b1-4)[Fuc(a1-6)]GlcNAc
# How it was run: as §1
# [7] = target: Gal(b1-3)GlcNAc(b1-3)Gal(b1-4)GlcNAc(b1-3)Gal(b1-4)GlcNAc(b1-2)[Gal(b1-3)GlcNAc(b1-3)Gal(b1-4)GlcNAc(b1-3)Gal(b1-4)GlcNAc(b1-6)]Man(a1-6)[Gal(b1-3)GlcNAc(b1-3)Gal(b1-4)GlcNAc(b1-3)Gal(b1-4)GlcNAc(b1-2)Man(a1-3)]Man(b1-4)GlcNAc(b1-4)[Fuc(a1-6)]GlcNAc
# How it was run: as §1
# [8] = target: Gal(b1-3)GlcNAc(b1-3)Gal(b1-4)GlcNAc(b1-6)[Gal(b1-3)GlcNAc(b1-3)]Gal(b1-4)Glc
# How it was run: as §1
# [9] = target: Gal(b1-3)GlcNAc(b1-3)Gal(b1-4)[Fuc(a1-3)]GlcNAc
# How it was run: as §1
# [10] = target: Gal(b1-3)GlcNAc(b1-3)Gal(b1-4)[Fuc(a1-3)]GlcNAc(b1-6)[Gal(b1-3)GlcNAc(b1-3)]Gal(b1-4)Glc
# How it was run: as §1
# [11] = target: Gal(b1-3)GlcNAc(b1-3)GalNAc
# How it was run: as §1
# [12] = target: Gal(b1-3)GlcNAc(b1-6)Gal(b1-4)GlcNAc
# How it was run: as §1
# [13] = target: Gal(b1-3)GlcNAc(b1-6)GalNAc
# How it was run: as §1
# [14] = target: Gal(b1-3)GlcNAc(b1-6)[Gal(b1-3)]GalNAc
# How it was run: as §1
# Gal(b1-3)GlcNAc6S = target: Gal(b1-3)GlcNAc6S
# How it was run: as §1
# [15] = target: Gal(b1-3)[Fuc(a1-4)]GlcNAc
# How it was run: as §1
# [16] = target: Gal(b1-3)[Fuc(a1-4)]GlcNAc(b1-2)Man
# How it was run: as §1
# [17] = target: Gal(b1-3)[Fuc(a1-4)]GlcNAc(b1-2)Man(a1-3)[Gal(b1-3)[Fuc(a1-4)]GlcNAc(b1-2)Man(a1-6)]Man(b1-4)GlcNAc(b1-4)GlcNAc
# How it was run: as §1
# [18] = target: Gal(b1-3)[Fuc(a1-4)]GlcNAc(b1-2)Man(a1-3)[Gal(b1-3)[Fuc(a1-4)]GlcNAc(b1-2)Man(a1-6)]Man(b1-4)GlcNAc(b1-4)[Fuc(a1-6)]GlcNAc
# How it was run: as §1
# [19] = target: Gal(b1-3)[Fuc(a1-4)]GlcNAc(b1-3)Gal(b1-3)[Fuc(a1-4)]GlcNAc
# How it was run: as §1
# [20] = target: Gal(b1-3)[Fuc(a1-4)]GlcNAc(b1-3)Gal(b1-4)GlcNAc
# How it was run: as §1
# [21] = target: Gal(b1-3)[Fuc(a1-4)]GlcNAc(b1-3)Gal(b1-4)[Fuc(a1-3)]GlcNAc
# How it was run: as §1
# [22] = target: Gal(b1-3)[Fuc(a1-4)]GlcNAc(b1-6)GalNAc
# How it was run: as §1
# [23] = target: Gal(b1-3)[GlcNAc(b1-6)]GalNAc
# How it was run: as §1
# [24] = target: Gal(b1-3)[Neu5Ac(a2-6)]GalNAc
# How it was run: as §1
# [25] = target: Gal(b1-3)[Neu5Ac(a2-6)]GlcNAc(b1-4)Gal(b1-4)Glc
# How it was run: as §1
# [26] = target: Gal(b1-3)[Neu5Ac(a2-6)]GlcNAc(b1-6)Gal(b1-4)Glc
# How it was run: as §1
# [27] = target: Gal(b1-3)[Neu5Ac(b2-6)]GalNAc
# How it was run: as §1
# Gal(b1-4)Gal = target: Gal(b1-4)Gal
# How it was run: as §1
# [28] = target: Gal(b1-4)GalNAc(a1-3)[Fuc(a1-2)]Gal(b1-4)GlcNAc
# How it was run: as §1
# [29] = target: Gal(b1-4)GalNAc(b1-3)[Fuc(a1-2)]Gal(b1-4)GlcNAc
# How it was run: as §1
# Gal(b1-4)Glc = target: Gal(b1-4)Glc
# How it was run: as §1
# Gal(b1-4)Glc6S = target: Gal(b1-4)Glc6S
# How it was run: as §1
# Gal(b1-4)GlcNAc = target: Gal(b1-4)GlcNAc
# How it was run: as §1
# [30] = target: Gal(b1-4)GlcNAc(a1-6)Gal(b1-4)GlcNAc
# How it was run: as §1
# Gal(b1-4)GlcNAc(b1-2)Man = target: Gal(b1-4)GlcNAc(b1-2)Man
# How it was run: as §1
# [31] = target: Gal(b1-4)GlcNAc(b1-2)Man(a1-3)Man(b1-4)GlcNAc(b1-4)GlcNAc
# How it was run: as §1
# [32] = target: Gal(b1-4)GlcNAc(b1-2)Man(a1-3)[Gal(b1-4)GlcNAc(b1-2)Man(a1-6)]Man(b1-4)GlcNAc(b1-4)GlcNAc
# How it was run: as §1
# [33] = target: Gal(b1-4)GlcNAc(b1-2)Man(a1-3)[Gal(b1-4)GlcNAc(b1-2)Man(a1-6)]Man(b1-4)GlcNAc(b1-4)[Fuc(a1-6)]GlcNAc
# How it was run: as §1
# [34] = target: Gal(b1-4)GlcNAc(b1-2)Man(a1-3)[Gal(b1-4)GlcNAc(b1-2)Man(a1-6)][Gal(b1-4)GlcNAc(b1-4)]Man(b1-4)GlcNAc(b1-4)[Fuc(a1-6)]GlcNAc
# How it was run: as §1
# [35] = target: Gal(b1-4)GlcNAc(b1-2)Man(a1-3)[Gal(b1-4)GlcNAc(b1-2)Man(a1-6)][GlcNAc(b1-4)]Man(b1-4)GlcNAc(b1-4)[Fuc(a1-6)]GlcNAc
# How it was run: as §1
# [36] = target: Gal(b1-4)GlcNAc(b1-2)Man(a1-3)[GlcNAc(b1-2)Man(a1-6)]Man(b1-4)GlcNAc(b1-4)GlcNAc
# How it was run: as §1
# [37] = target: Gal(b1-4)GlcNAc(b1-2)Man(a1-3)[GlcNAc(b1-4)][Gal(b1-4)GlcNAc(b1-2)Man(a1-6)]Man(b1-4)GlcNAc(b1-4)GlcNAc
# How it was run: as §1
# [38] = target: Gal(b1-4)GlcNAc(b1-2)Man(a1-3)[Man(a1-6)]Man(b1-4)GlcNAc(b1-4)GlcNAc
# How it was run: as §1
# [39] = target: Gal(b1-4)GlcNAc(b1-2)Man(a1-6)Man(b1-4)GlcNAc(b1-4)GlcNAc
# How it was run: as §1
binder,measurement,setting,value
B1,glycan array binding signal (z-score),[1],0.12
same,glycan array binding signal (z-score),[2],-0.242
same,glycan array binding signal (z-score),[3],-0.204
same,glycan array binding signal (z-score),[4],-0.197
same,glycan array binding signal (z-score),[5],0.19
same,glycan array binding signal (z-score),[6],1.35
same,glycan array binding signal (z-score),[7],1.3
same,glycan array binding signal (z-score),[8],-0.18
same,glycan array binding signal (z-score),[9],-0.166
same,glycan array binding signal (z-score),[10],-0.151
same,glycan array binding signal (z-score),[11],-0.163
same,glycan array binding signal (z-score),[12],-0.18
same,glycan array binding signal (z-score),[13],-0.15
same,glycan array binding signal (z-score),[14],-0.09
same,glycan array binding signal (z-score),Gal(b1-3)GlcNAc6S,-0.168
same,glycan array binding signal (z-score),[15],-0.169
same,glycan array binding signal (z-score),[16],-0.156
same,glycan array binding signal (z-score),[17],0.074
same,glycan array binding signal (z-score),[18],0.912
same,glycan array binding signal (z-score),[19],-0.114
same,glycan array binding signal (z-score),[20],-0.366
same,glycan array binding signal (z-score),[21],-0.257
same,glycan array binding signal (z-score),[22],-0.1
same,glycan array binding signal (z-score),[23],-0.166
same,glycan array binding signal (z-score),[24],-0.177
same,glycan array binding signal (z-score),[25],-0.195
same,glycan array binding signal (z-score),[26],-0.117
same,glycan array binding signal (z-score),[27],-0.139
same,glycan array binding signal (z-score),Gal(b1-4)Gal,-0.161
same,glycan array binding signal (z-score),[28],-0.192
same,glycan array binding signal (z-score),[29],-0.157
same,glycan array binding signal (z-score),Gal(b1-4)Glc,-0.163
same,glycan array binding signal (z-score),Gal(b1-4)Glc6S,-0.124
same,glycan array binding signal (z-score),Gal(b1-4)GlcNAc,-0.172
same,glycan array binding signal (z-score),[30],-0.17
same,glycan array binding signal (z-score),Gal(b1-4)GlcNAc(b1-2)Man,-0.167
same,glycan array binding signal (z-score),[31],0.804
same,glycan array binding signal (z-score),[32],0.28
same,glycan array binding signal (z-score),[33],-0.031
same,glycan array binding signal (z-score),[34],-0.178
same,glycan array binding signal (z-score),[35],-0.186
same,glycan array binding signal (z-score),[36],0.488
same,glycan array binding signal (z-score),[37],-0.172
same,glycan array binding signal (z-score),[38],1.7
same,glycan array binding signal (z-score),[39],-0.171
